# Assay results from PubChem BioAssay AID624170 (National Center for Advancing Translational Sciences (NCATS), 2012).
# Among all 410,000 compounds or so, about 850 (0.21%) were called active. Inconclusive results, whose numbers are uncertain, are shown with a selection of clear calls. The call rests on the fitted dose curve; in most records, active means well fitted inhibition curve with a large enough effect; inconclusive means small, poorly fitted or top-dose-only effect, or another doubt; inactive means no such curve, though single readings can be large or run the other way. No potency is given beside an inconclusive call; the fits are too rough.
# Target: Glutaminase kidney isoform, mitochondrial (Homo sapiens) (UniProt O94925)
# Test: qHTS for Inhibitors of Glutaminase (GLS)
# Conditions: GLS enzymatic activity, qHTS titration; series mostly up to 45.5 µM; activity change, negative = inhibition: at the top concentration
# Description: Glutaminase (GLS) catalyzes the hydrolysis of glutamine into glutamate and ammonia. It plays a critical role in glutaminolysis, which is an important energy source for proliferating cells. It was shown that c-Myc, an oncogenic transcription factor known to regulate microRNAs and to stimulate cell proliferation, increases glutamine metabolism by stimulating the expression of GLS via direct suppression of miR23a and miR23b.
# GLS is also thought to play a pathogenic role on HAD using a human HIV-1 infected macrophage system. […] GLS inhibition limits glutamate release and provides neuroprotection against HIV-1 infected macrophages.
# The overall goal of this project is to identify small molecule inhibitors of GLS through quantitative high throughput screening (qHTS) of the MLSMR. A validated potent and selective inhibitor can be used as a tool molecule to further study the pharmacology of its target as well as explore its potential therapeutic application in cancer and inflammatory neurological disorders, such as HIV1-associated dementia (HAD) and multiple sclerosis.
# NIH Chemical Genomics Center [NCGC]
# NIH Molecular Libraries Probe Centers Network [MLPCN]
# Assay Submitter (PI): Barbara S. Slusher, Johns Hopkins University
# Three 3 uL of hKGA is dispensed into black well 1536-well plates in 45 mM KH2PO4 (pH 8.2), 0.02% Tween-20. Then 23 nL of compounds are added through pin tool transfer. To this, 1 uL of 1mM L-Glutamine and 1 uL of a solution of L-Glutamateoxidase, HRP, Amplex red are added. Plate is centrifuged for 25 sec before an initial fluorescence read is obtained on the ViewLux, after 30 min of RT incubation, the final read is taken on the ViewLux.
# On the % scale 0 is the no-effect control and ±100 the full control effect; potency means the concentration at half of the fitted maximal effect; tags describe the fitted curve by direction and shape.
# Sequence of UniProt O94925 (O94925 whole entry, looked up, canonical isoform): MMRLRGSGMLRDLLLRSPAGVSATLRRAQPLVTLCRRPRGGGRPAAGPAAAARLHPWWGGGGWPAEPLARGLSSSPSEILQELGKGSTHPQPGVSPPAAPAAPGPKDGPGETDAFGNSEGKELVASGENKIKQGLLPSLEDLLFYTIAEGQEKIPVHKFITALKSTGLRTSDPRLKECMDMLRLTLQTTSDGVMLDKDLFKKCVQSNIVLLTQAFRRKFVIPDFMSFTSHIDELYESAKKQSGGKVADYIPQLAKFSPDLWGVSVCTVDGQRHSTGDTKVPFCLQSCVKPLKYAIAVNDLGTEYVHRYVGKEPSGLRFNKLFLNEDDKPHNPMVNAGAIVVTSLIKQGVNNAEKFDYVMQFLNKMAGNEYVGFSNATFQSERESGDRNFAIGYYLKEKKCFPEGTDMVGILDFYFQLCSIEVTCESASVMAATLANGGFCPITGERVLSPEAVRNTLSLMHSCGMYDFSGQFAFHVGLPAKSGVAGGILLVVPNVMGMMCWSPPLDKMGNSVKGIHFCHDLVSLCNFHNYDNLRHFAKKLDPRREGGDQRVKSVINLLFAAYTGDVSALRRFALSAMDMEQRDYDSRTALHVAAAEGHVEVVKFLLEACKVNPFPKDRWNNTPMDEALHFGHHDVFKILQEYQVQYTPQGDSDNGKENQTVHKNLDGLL
Structure (SMILES),"activity change, negative = inhibition",Potency
Cc1ccc(NC(=O)CSc2nc(-c3ccc(C(C)(C)C)cc3)nc3cc(=O)[nH]n23)cc1C,inactive: 7.21%,–
COc1cccc2c(N/N=C/c3ccc(O)c(O)c3)cc(C)nc12,–,"inconclusive [inhibitor, single point]"
CC(=O)[C@@H]1[C@@H]2C(=O)N(c3ccccc3F)C(=O)[C@@H]2[C@H]2c3ccccc3C=NN12,inactive: 134%,–
CCN(CC)S(=O)(=O)c1ccc2c(c1)nc(CN(C)C(=O)Nc1cccc(Cl)c1)n2C,–,"inconclusive [inhibitor, single point]"
COc1cc(OC)c(S(=O)(=O)Nc2ccccc2C(=O)O)cc1S(=O)(=O)Nc1ccccc1C(=O)O,–,active: 5.62 µM
N=C1/C(=C\c2ccc(OC(=O)c3ccc(F)cc3)cc2)C(=O)N=C2SC(N3CCCC3)=NN12,inactive: 0.405%,–
Cc1cccc(Cc2c(C)[nH]c(=O)c(C#N)c2C)c1,inactive: -1.45%,–
O=C1C(Cl)=C(NCCc2ccccc2)C(=O)c2ccccc21,–,"inconclusive [inhibitor, single point]"
Cc1oc(C(=O)O)cc1CSCc1ccoc1C(=O)O,–,"inconclusive [inhibitor, single point]"
CCOc1cc(/C=C2/NC(=O)NC2=O)cc(Br)c1OCc1ccc(C(=O)O)cc1,–,"inconclusive [inhibitor, single point]"
Cc1cc2c(cc1C)[n+](C)cn2CC(O)COCC1CC=CCC1 (configuration not stated),–,"inconclusive [inhibitor, partial curve, poor fit]"
COc1ccc2cc(C)c3nnc(SCC(=O)Nc4cc(OC)c(OC)cc4C(=O)O)n3c2c1,–,"inconclusive [inhibitor, single point]"
CSc1nc(-c2ccc(Cl)cc2)nn1S(=O)(=O)c1ccccc1,inactive: 0.459%,–
O=C(O)CCC(=O)NCCc1cccc(Cl)c1,–,"inconclusive [inhibitor, single point]"
Cc1cccc(C)c1N=C1NN=C(c2ccccc2F)CS1,inactive: -5.1%,–
O=[N+]([O-])c1ccc(N2CCN(c3ccc(O)cc3)CC2)cn1,–,active: 10 µM
NC(c1csc(Nc2ccc(C(=O)NCCO)cc2)n1)C1CCCCC1 (configuration not stated),inactive: 26.1%,–
CC(=O)c1sc(C(=O)O)c(-c2ccco2)c1-c1ccco1,–,active: 20 µM
O=C(c1ccc(CS(=O)(=O)c2ccc(Br)cc2)o1)N1CCOCC1,inactive: -8.64%,–
Cc1cccc(-n2c(-c3ccccc3)c[nH]c2=S)c1C,–,"inconclusive [inhibitor, partial curve]"
CN(C)c1nc(C=C(C#N)C#N)c(Cl)n1-c1ccc(F)cc1,inactive: -5.74%,–
COc1ccc(OC)c(C2NC(=O)c3sc(=S)n(-c4ccccc4)c3N2)c1 (configuration not stated),inactive: 1.96%,–
CCN1CCc2c(sc(N)c2C(N)=O)C1,–,"inconclusive [inhibitor, single point]"
O=[N+]([O-])c1ccccc1/C=N/n1c(C2CCCCC2)n[nH]c1=S,–,"inconclusive [inhibitor, single point]"

Structure (SMILES),"activity change, negative = inhibition",Potency
CC1CCN(S(=O)(=O)c2ccc3c(ccc(=O)n3CC(=O)Nc3ccc(C(C)C)cc3)c2)CC1,inactive: -14.2%,–
Cc1[nH]c(=S)c(C#N)c(C)c1Cc1ccc(Cl)cc1Cl,–,"inconclusive [inhibitor, partial curve, poor fit]"
COc1ccc(-c2cc(C#N)nc(NN)n2)cc1,–,active: 17.8 µM
COC(=O)CCNC(=O)NC(CCC(C)C)c1c(-n2cccc2)sc2c1CCN(C)C2 (configuration not stated),–,"inconclusive [inhibitor, partial curve, poor fit]"
CCN1c2ccccc2-c2nc(SCC(=O)NCc3ccccc3)ncc2S1(=O)=O,inactive: -10.9%,–
O=C(O)c1csc(N/N=C/c2ccc(Br)cc2)n1,inactive: 3.21%,–
COc1ccc(/C=N/NC(=O)c2ccncc2)cc1Cn1nc([N+](=O)[O-])c(Br)c1C,–,"inconclusive [inhibitor, single point]"
CC(NC(=O)c1cccnc1)C(c1cccs1)N1CCOCC1 (configuration not stated),inactive: 8.59%,–
COc1cc(/C=N/NC(=S)Nc2cccnc2)cc(OC)c1O,–,"inconclusive [inhibitor, partial curve, poor fit]"
Cc1ccc(NC(=O)C2CCN(S(=O)(=O)c3ccc4c(c3)OCCO4)CC2)c(O)c1,–,"inconclusive [inhibitor, partial curve]"
O=C1NCC(c2ccccc2)C1C(=O)N/N=C/c1ccc(Cl)s1 (configuration not stated),inactive: 2.12%,–
CCCn1cc(SCC(=O)NCc2ccco2)c2ccccc21,inactive: -7.54%,–
CCc1ccccc1OCCOc1ccc(C)cc1OC,–,"inconclusive [inhibitor, single point]"
O=C(CNS(=O)(=O)c1ccccc1)NCC(=O)OCc1ccc(Br)cc1,–,"inconclusive [inhibitor, single point]"
CSS(=O)(=O)c1cccc2cccnc12,–,"inconclusive [inhibitor, single point]"
Cc1cccc(N/N=C/c2ccc(O)c(O)c2O)c1,–,"inconclusive [inhibitor, partial curve, poor fit]"
Brc1ccc(C2=CC(c3cccs3)n3ncnc3N2)cc1 (configuration not stated),–,"inconclusive [inhibitor, single point]"
O=C(Nc1nc2n(n1)C(c1ccc(Cl)cc1)C=C(c1ccccc1)N2)c1ccco1 (configuration not stated),–,"inconclusive [inhibitor, single point]"
O=C(CSc1nc(-c2cccs2)nc2cc(=O)[nH]n12)Nc1cccc(C(F)(F)F)c1,–,"inconclusive [inhibitor, single point]"
COC(=O)N/N=C/c1ccc(OS(=O)(=O)c2ccc(C)cc2)c(OC)c1,inactive: -17.9%,–
N#CCN1CCC(c2cc(-c3ccco3)n[nH]2)CC1,–,"inconclusive [inhibitor, single point]"
Cc1ccc(C(=O)OCC(=O)c2ccc(S(=O)(=O)N3CCCCC3)cc2)o1,inactive: 14.6%,–
CCOc1cc(C2C(C#N)=C(N)Oc3cc(N)ccc32)ccc1O (configuration not stated),–,"inconclusive [inhibitor, partial curve, poor fit]"
